The text below walks through data of PMC4336329 (PLoS ONE, 2015).

The whole screen tested about 310,000 compounds, of which about 2,200 (0.71%) showed an effect of 50% or more. Effects have a minus sign here. This is one part of the list.

For this assay, the target named is human ether-à-go-go-related gene (hERG) potassium channel (human, UniProt Q12809). As to the kind of experiment: primary screen, population patch clamp on CHO cells stably expressing hERG.
Chain of human ether-à-go-go-related gene (hERG) potassium channel (Q12809 whole entry, looked up): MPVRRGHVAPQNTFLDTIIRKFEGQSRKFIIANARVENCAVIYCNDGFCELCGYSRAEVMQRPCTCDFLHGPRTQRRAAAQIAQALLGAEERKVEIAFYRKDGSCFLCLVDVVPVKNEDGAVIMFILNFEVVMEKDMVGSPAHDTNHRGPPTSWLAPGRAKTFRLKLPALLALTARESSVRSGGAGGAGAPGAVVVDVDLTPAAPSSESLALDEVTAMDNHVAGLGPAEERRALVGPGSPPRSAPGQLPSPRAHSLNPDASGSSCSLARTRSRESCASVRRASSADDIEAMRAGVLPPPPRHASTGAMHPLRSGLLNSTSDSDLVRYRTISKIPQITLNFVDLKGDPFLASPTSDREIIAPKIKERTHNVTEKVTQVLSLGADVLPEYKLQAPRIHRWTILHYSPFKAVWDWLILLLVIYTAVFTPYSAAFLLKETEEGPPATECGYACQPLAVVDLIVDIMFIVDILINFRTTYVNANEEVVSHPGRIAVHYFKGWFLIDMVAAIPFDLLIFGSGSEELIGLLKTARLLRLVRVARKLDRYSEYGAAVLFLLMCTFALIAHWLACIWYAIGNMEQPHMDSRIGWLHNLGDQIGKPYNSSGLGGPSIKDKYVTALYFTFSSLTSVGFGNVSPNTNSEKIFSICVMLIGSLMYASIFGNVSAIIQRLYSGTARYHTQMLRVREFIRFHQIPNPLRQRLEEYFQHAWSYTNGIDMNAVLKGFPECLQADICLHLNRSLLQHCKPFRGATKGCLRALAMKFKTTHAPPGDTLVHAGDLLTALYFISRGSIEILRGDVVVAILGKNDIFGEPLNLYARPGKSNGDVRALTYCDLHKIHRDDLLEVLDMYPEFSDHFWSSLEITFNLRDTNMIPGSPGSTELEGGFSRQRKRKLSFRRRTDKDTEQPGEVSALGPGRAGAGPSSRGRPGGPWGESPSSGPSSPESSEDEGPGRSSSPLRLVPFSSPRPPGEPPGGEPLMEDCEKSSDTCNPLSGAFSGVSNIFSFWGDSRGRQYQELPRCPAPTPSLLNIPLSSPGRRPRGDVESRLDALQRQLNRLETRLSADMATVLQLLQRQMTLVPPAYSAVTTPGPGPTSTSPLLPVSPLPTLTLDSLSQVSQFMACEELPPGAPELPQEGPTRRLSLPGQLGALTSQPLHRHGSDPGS
As for `Cc1sc2ncnc(SCC(=O)c3ccc(Cl)s3)c2c1C`, the “hERG current change (%, negative = inhibition) at 1uM” value came to 14%.
On to `COc1cc(CNc2ccc(N3CCCC3)cc2)ccc1OCc1ccccc1`, for which the “hERG current change (%, negative = inhibition) at 1uM” value is 19.6%.
To `CCN(CC(=O)Nc1c(F)cccc1F)C(=O)C1CC(=O)N(c2ccccc2OC)C1` (centres unmarked) belongs 7.9%.
For the molecule `Cc1ccc(NS(=O)(=O)c2ccc(C(=O)NNC(=O)c3ccccc3O)cc2)cc1`, the “hERG current change (%, negative = inhibition) at 1uM” value is reported as 4.12%.
For `CCc1ccc2c(c1)CCCN2C(=O)c1ccccc1C(=O)O`, the “hERG current change (%, negative = inhibition) at 1uM” value is recorded as -13%.
As for `Cc1ccc(S(=O)(=O)N(C)c2nc3ccccc3[nH]c2=S)cc1`, the “hERG current change (%, negative = inhibition) at 1uM” value was 9.32%.
As for `Cc1nc2ncccn2c1-c1csc(Nc2cccc(C(=O)O)c2)n1`, the “hERG current change (%, negative = inhibition) at 1uM” value came out at 0.117%.
On to `CCc1cc2c(=O)c(-c3nc4ccccc4n3C)c(COCC(=O)O)oc2cc1OC(=O)C(C)(C)C`, for which the “hERG current change (%, negative = inhibition) at 1uM” value was 11.4%.
With `Cc1ccccc1N(CC(=O)N/N=C/c1ccc(N(C)C)cc1)C(=O)c1ccccc1`, the “hERG current change (%, negative = inhibition) at 1uM” value stood at 4.15%.
For the molecule `CC(=O)Nc1ccc(C(=O)NCCCOC(C)C)cc1`, the “hERG current change (%, negative = inhibition) at 1uM” value is 8.55%.
Regarding `CN1CCC(O)(c2cccs2)C(C(=O)c2cccs2)C1` (centres unmarked), the “hERG current change (%, negative = inhibition) at 1uM” value is reported as 12.4%.
`Nc1nc(N)nc(-c2ccc(Cl)c(Cl)c2)n1`: the “hERG current change (%, negative = inhibition) at 1uM” value is recorded as 3.92%.
Take `NC(=O)Nc1ccccc1C(=O)NCCc1ccccc1`: the “hERG current change (%, negative = inhibition) at 1uM” value was found to be 9.22%.
With `CN(C(=O)c1cncc(Br)c1)C1C2CC3CC(C2)CC1C3` (centres unmarked), the “hERG current change (%, negative = inhibition) at 1uM” value is recorded as 19.9%.
Regarding `Cn1c(=O)n(CC(=O)NCc2cccnc2)c2ccccc21`, the “hERG current change (%, negative = inhibition) at 1uM” value is -7.46%.
On to `Nc1ccc(C(=O)OCCc2ccccc2)cc1`, for which the “hERG current change (%, negative = inhibition) at 1uM” value came to 10.6%.
As for `CCCCC(=O)N(c1ccc(C(=O)O)cc1)c1nc(-c2ccc(Cl)cc2)c(CC)s1`, the “hERG current change (%, negative = inhibition) at 1uM” value was determined as 5.34%.
On to `CCOc1cc(/C=N/NC(=O)COc2ccc(Cl)cc2)ccc1OS(=O)(=O)c1ccccc1`, for which the “hERG current change (%, negative = inhibition) at 1uM” value was found to be 7.47%.
In the case of `COc1ccc(NC(=O)Nc2ccc3nonc3c2)cc1`, the “hERG current change (%, negative = inhibition) at 1uM” value is 1.49%.
Turning to `C=C(C)CNC(=O)CCc1nnc(Cc2cccc(C(F)(F)F)c2)o1`, the “hERG current change (%, negative = inhibition) at 1uM” value worked out at 15.5%.
Regarding `CCOC(=O)c1c(NC(=O)CSc2nnc(-c3cccc(C)c3)n2CC)sc(C(C)=O)c1C`, the “hERG current change (%, negative = inhibition) at 1uM” value came to 9.04%.
In the case of `CC(=O)N1N=C(c2ccccc2)OC1c1cccnc1` (centres unmarked), the “hERG current change (%, negative = inhibition) at 1uM” value worked out at 11%.
For the molecule `Cc1cc(C(=O)NN)c(Cl)cc1Cl`, the “hERG current change (%, negative = inhibition) at 1uM” value is 3.26%.
As for `CCOC(=O)C(C(=O)OCC)C(CC(=O)C1CC1)c1ccccc1` (centres unmarked), the “hERG current change (%, negative = inhibition) at 1uM” value was determined as 7.69%.
Regarding `CC(C)CC(=O)c1c[nH]c(C(=O)NCc2cccnc2)c1`, the “hERG current change (%, negative = inhibition) at 1uM” value turned out to be 5.75%.
`CCCCOc1ccc(CN2CCCCC2)cc1`: the “hERG current change (%, negative = inhibition) at 1uM” value came out at 2.91%.
As for `CCCCN(CC)C(=O)c1ccc(-c2ccccc2)cc1`, the “hERG current change (%, negative = inhibition) at 1uM” value came out at 10.3%.
For `COc1ccc(CNC(=O)CSc2ccsc2[N+](=O)[O-])cc1`, the “hERG current change (%, negative = inhibition) at 1uM” value was determined as 4.67%.
For the molecule `CC(NC(=O)CSc1cccc(C(F)(F)F)c1)c1ccccc1` (centres unmarked), the “hERG current change (%, negative = inhibition) at 1uM” value turned out to be 5.45%.
For the molecule `CSc1nc2nc3c(cc2c(=O)n1-c1cccc(C)c1)COC(C)(C)C3`, the “hERG current change (%, negative = inhibition) at 1uM” value is reported as 12.6%.
Consider `CCOC(=O)N1CCN(C(=O)CSCc2nc(-c3ccccc3F)oc2C)CC1`, for which the “hERG current change (%, negative = inhibition) at 1uM” value is 5.06%.
With `CCn1c(COc2cccc(OC)c2)nnc1SCC(=O)Nc1ccccc1C(=O)OC` the figure was 9.55%; with `COc1ccccc1NC(=O)N(CCN1CCCC1)Cc1cc2cc(C)ccc2[nH]c1=O`, -14.2%; with `COc1ccccc1-n1c(SCC(=O)N2CCCC2)nnc1-c1ccccc1`, 2.76%.
As to `COc1ccc(/C(C)=N/NC(=O)Cn2nc([N+](=O)[O-])cc2C)cc1`, the “hERG current change (%, negative = inhibition) at 1uM” value stood at 14.4%.
Turning to `Cn1c(SCC(=O)NCC2CCCO2)ncc(C(=O)Nc2ccccc2)c1=O` (centres unmarked), the “hERG current change (%, negative = inhibition) at 1uM” value is listed as 1.64%.
Consider `Cc1nnsc1C(=O)NNc1ccc(C(C)(C)C)cc1`, for which the “hERG current change (%, negative = inhibition) at 1uM” value was determined as 13.9%.
With `Cc1cc(C)c(OCCNC(=O)c2ccccc2Sc2ccccc2C#N)c(C)c1` the figure was 9.8%; with `CCOc1ccc(S(=O)(=O)N2CCN(CC)CC2)cc1NC(=O)c1ccccc1F`, 2.07%; with `CCOc1ccc(N2C(=O)CC(NCc3ccc(F)cc3)C2=O)cc1` (centres unmarked), 0.609%.
In the case of `CC1(C)Cc2c(sc(NC(=O)COc3ccc(Cl)cc3)c2C#N)C(C)(C)N1`, the “hERG current change (%, negative = inhibition) at 1uM” value turned out to be 12.8%.
As to `C/C=C(\C)C(=O)NNC(=O)c1sc(-c2ccccc2)nc1C`, the “hERG current change (%, negative = inhibition) at 1uM” value worked out at 15.9%.
With `O=C(NCc1ccncc1)C(F)(F)C(F)(F)C(=O)NCc1ccncc1` the figure was -1.57%; with `COC(OC)c1ccc(C#N)c(SCc2ccc(C)cc2)n1`, 8.89%.
Take `CC(C)Cc1ccc(C(C)C(=O)O)cc1` (centres unmarked): the “hERG current change (%, negative = inhibition) at 1uM” value was determined as 4.26%.
`COc1cc(COCC(O)CN2CCCCC2C)cc(OC)c1OC.Cl` (centres unmarked): the “hERG current change (%, negative = inhibition) at 1uM” value is on record as 14.4%.
As to `CCOC(=O)C1(CCOc2ccccc2)CCN(Cc2cccc(F)c2)CC1`, the “hERG current change (%, negative = inhibition) at 1uM” value was -7.5%.
Turning to `Cc1ccc(NC(=O)c2oc3c(c2C)C(=O)CC(C)(C)C3)cc1`, the “hERG current change (%, negative = inhibition) at 1uM” value is on record as 12.5%.
`CC(C)c1ccc(OCC(=O)NNC(=S)NC(=O)C2CC2)cc1`: the “hERG current change (%, negative = inhibition) at 1uM” value worked out at 10.7%.
To `Cc1cc(C)nc(SCC(=O)OCN2C(=O)c3ccccc3C2=O)n1` belongs -6.32%; to `O=C1/C(=C/c2ccccn2)SC(=S)N1Cc1ccccc1`, 12.4%; to `CC(C)n1nnnc1-c1ccc(Cl)cc1`, 13.6%.
With `Cc1cccc(NC(=O)c2cnc3scc(C)n3c2=O)c1`, the “hERG current change (%, negative = inhibition) at 1uM” value came to 7.85%.
As for `C/C(=N\NC(=O)C(N)=O)c1ccc2c(c1)OCCO2`, the “hERG current change (%, negative = inhibition) at 1uM” value is 11.6%.
As for `CC1CCCCN1C(=S)Nc1ccc(OC(F)F)cc1` (centres unmarked), the “hERG current change (%, negative = inhibition) at 1uM” value is given as 6.04%.
In the case of `C=CCn1c(P(=O)(O)c2ccccc2)nc2ccccc21`, the “hERG current change (%, negative = inhibition) at 1uM” value amounted to 11.3%.
For `CC1(C)C2CCC1(CS(=O)(=O)N1CCCc3ccccc31)C(=O)C2` (centres unmarked), the “hERG current change (%, negative = inhibition) at 1uM” value worked out at 3.23%.
With `CN1CCN(S(=O)(=O)c2ccc(N3CCN(C(c4ccccc4)c4ccccc4)CC3)nc2)CC1` the figure was 18.9%; with `CC(=O)Nc1ccc(N/C=C2/CCCC2=O)cc1`, 11.7%.
